# Measurements: the supplement of paper PMC8285479
# Structures can show the parent of a compound that is named as a salt. ± gives the standard deviation of the averaged measurements. In all, about 1,900 compounds were measured (“normalised cell viability (NPI; 0 = phenylarsine oxide control, 1 = DMSO control)”: median about 1, lowest 2% from about 0.039 on). The list shows a part of the results.
# Tested on: NCI-H1944
# Experiment: normalised cell viability (NPI; 0 = phenylarsine oxide control, 1 = DMSO control) (fraction of DMSO control); NCI-H1944 is a non-small cell lung cancer line; higher = more viable cells (less compound toxicity)
# Details: 6 days
# [1] = glucocorticoid arm: hydrocortisone 2.75 uM co-treatment, compound 1 µM
# [2] = glucocorticoid arm: hydrocortisone 2.75 uM co-treatment, compound 5 µM
# [3] = glucocorticoid arm: hydrocortisone 2.75 uM pre-treated 2 days and continued, compound 1 µM
# [4] = glucocorticoid arm: hydrocortisone 2.75 uM pre-treated 2 days and continued, compound 5 µM
# [5] = glucocorticoid arm: vehicle, compound 1 µM
# [6] = glucocorticoid arm: vehicle, compound 5 µM
# 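Note: CTB read-out in 384-well plates, mean of triplicate wells, normalised per plate against 1 µM phenylarsine oxide and 0.1% DMSO, compounds added 24 h after seeding.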
compound,measurement,setting,value
CC(=O)NCC(=O)N1[C@@H]2CC[C@H]1c1ccc(Nc3ncc(C(F)(F)F)c(NC4CCC4)n3)cc12,normalised cell viability,[1],0.712 ± 0.0091
same,normalised cell viability,[2],0.552 ± 0.019
same,normalised cell viability,[3],0.83 ± 0.0095
same,normalised cell viability,[4],0.717 ± 0.01
same,normalised cell viability,[5],0.301 ± 0.018
same,normalised cell viability,[6],0.201 ± 0.017
CC(C)[C@H](C(=O)Nc1ccc(C(=O)NO)cc1)c1ccccc1,normalised cell viability,[1],0.752 ± 0.021
same,normalised cell viability,[2],0.00258 ± 0.00047
same,normalised cell viability,[3],0.897 ± 0.021
same,normalised cell viability,[4],0.00754 ± 0.0016
same,normalised cell viability,[5],0.172 ± 0.0081
same,normalised cell viability,[6],0.00052 ± 0.00049
C#C[C@]1(OC(C)=O)CC[C@H]2[C@@H]3CCC4=C[C@@H](OC(C)=O)CC[C@@H]4[C@H]3CC[C@@]21C [Ethynodiol diacetate],normalised cell viability,[1],1.023 ± 0.0058
same,normalised cell viability,[2],1.027 ± 0.0058
same,normalised cell viability,[3],1.03
same,normalised cell viability,[4],1.027 ± 0.0058
same,normalised cell viability,[5],1 ± 0.0087
same,normalised cell viability,[6],0.9947 ± 0.005
CC(C)CCN1c2nc(Nc3cc(F)c(O)c(F)c3)ncc2N(C)C(=O)C1C (stereo not drawn),normalised cell viability,[1],1.02 ± 0.017
same,normalised cell viability,[2],1.033 ± 0.0058
same,normalised cell viability,[3],1.02 ± 0.011
same,normalised cell viability,[4],0.958 ± 0.013
same,normalised cell viability,[5],1.02
same,normalised cell viability,[6],0.899 ± 0.02
O=C1NC(=O)/C(=C/c2ccc(-c3ccc(F)cc3O)o2)S1,normalised cell viability,[1],0.991 ± 0.016
same,normalised cell viability,[2],1.01 ± 0.01
same,normalised cell viability,[3],1 ± 0.019
same,normalised cell viability,[4],0.955 ± 0.039
same,normalised cell viability,[5],1.003 ± 0.0064
same,normalised cell viability,[6],1.02 ± 0.01
Cc1cnc(Nc2ccc(N3CCN(C)CC3)cc2)nc1Nc1cccc(S(=O)(=O)NC(C)(C)C)c1,normalised cell viability,[1],0.767 ± 0.068
same,normalised cell viability,[2],0.425 ± 0.093
same,normalised cell viability,[3],0.815 ± 0.082
same,normalised cell viability,[4],0.562 ± 0.13
same,normalised cell viability,[5],0.923 ± 0.041
same,normalised cell viability,[6],0.138 ± 0.042
CCCCC(=O)OCC(=O)[C@]1(O)Cc2c(O)c3c(c(O)c2[C@@H](O[C@H]2C[C@H](NC(=O)C(F)(F)F)[C@H](O)[C@H](C)O2)C1)C(=O)c1c(OC)cccc1C3=O [Valrubicin],normalised cell viability,[1],0.665 ± 0.04
same,normalised cell viability,[2],0.868 ± 0.016
same,normalised cell viability,[3],0.973 ± 0.016
same,normalised cell viability,[4],0.982 ± 0.017
same,normalised cell viability,[5],0.228 ± 0.017
same,normalised cell viability,[6],0.374 ± 0.0045
COc1ccc(CCN(C)CCc2ccc(OC)c(OC)c2)cc1OC [YS-035 hydrochloride],normalised cell viability,[1],1.013 ± 0.0058
same,normalised cell viability,[2],1.02 ± 0.015
same,normalised cell viability,[3],1.01 ± 0.023
same,normalised cell viability,[4],1.023 ± 0.0058
same,normalised cell viability,[5],1.007 ± 0.0058
same,normalised cell viability,[6],1.01 ± 0.012
CC[N+](CC)(CC)CC [Tetraethylammonium chloride],normalised cell viability,[1],1.013 ± 0.0058
same,normalised cell viability,[2],1.02 ± 0.018
same,normalised cell viability,[3],1.03 ± 0.026
same,normalised cell viability,[4],1.017 ± 0.0058
same,normalised cell viability,[5],1.002 ± 0.0068
same,normalised cell viability,[6],1.007 ± 0.0058
Cc1cccc(-c2[nH]c(C(C)(C)C)nc2-c2ccc3nccnc3c2)n1,normalised cell viability,[1],0.9913 ± 0.0038
same,normalised cell viability,[2],0.836 ± 0.017
same,normalised cell viability,[3],0.9853 ± 0.0042
same,normalised cell viability,[4],0.969 ± 0.04
same,normalised cell viability,[5],0.9847 ± 0.0011
same,normalised cell viability,[6],0.83 ± 0.015
Cc1ccccc1/C=C/C1=NCCN1 [Metrazoline oxalate],normalised cell viability,[1],0.9993 ± 0.0011
same,normalised cell viability,[2],1.002 ± 0.0072
same,normalised cell viability,[3],1.01
same,normalised cell viability,[4],0.987 ± 0.017
same,normalised cell viability,[5],0.995 ± 0.007
same,normalised cell viability,[6],1.002 ± 0.0076
NC1(c2ccc(-c3nc4ccn5c(=O)[nH]nc5c4cc3-c3ccccc3)cc2)CCC1 [MK-2206 dihydrochloride],normalised cell viability,[1],0.74 ± 0.029
same,normalised cell viability,[2],0.54 ± 0.016
same,normalised cell viability,[3],0.759 ± 0.025
same,normalised cell viability,[4],0.663 ± 0.041
same,normalised cell viability,[5],0.932 ± 0.0095
same,normalised cell viability,[6],0.669 ± 0.018
O=C(O)Cc1ccccc1Nc1c(Cl)cccc1Cl [Diclofenac sodium],normalised cell viability,[1],1.006 ± 0.0069
same,normalised cell viability,[2],0.989 ± 0.019
same,normalised cell viability,[3],1.01 ± 0.011
same,normalised cell viability,[4],0.982 ± 0.017
same,normalised cell viability,[5],1.007 ± 0.0058
same,normalised cell viability,[6],1.007 ± 0.0058
